Assay results: the supplement of paper PMC4604168 (melanoma cell lines)
The other results are listed elsewhere or left out. Most values come without repeats; read them as rough.

Experiments:
Experiment in all cases: cell count relative to DMSO control; melanoma cells; higher = more viable cells
Details in all cases: library dose: low library concentration; 72 h; first compound 0.4 µM
MZ2-MEL = tested on: MZ2-MEL
MeWo = tested on: MeWo
RPMI7951 = tested on: RPMI7951
RVH-421 = tested on: RVH-421
SkMel28 = tested on: SkMel28
SkMel2 = tested on: SkMel2
SkMel30 = tested on: SkMel30
SkMel5 = tested on: SkMel5
UACC257 = tested on: UACC257
UACC62 = tested on: UACC62
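Also: cell number obtained by counting DAPI-stained nuclei in high-throughput microscope images with image analysis software, screen run in 1,536-well plates.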

Row | Structure (SMILES) | cell count (MZ2-MEL) | cell count (MeWo) | cell count (RPMI7951) | cell count (RVH-421) | cell count (SkMel28) | cell count (SkMel2) | cell count (SkMel30) | cell count (SkMel5) | cell count (UACC257) | cell count (UACC62)
1 | CCCCCCCCCCCCCCCCCCOP(=O)([O-])OC1CC[N+](C)(C)CC1 [Perifosine] + COc1ccc2c(c1)CCC1C2CCC2(C)C(NCCCCCCN3C(=O)C=CC3=O)CCC12 [U73122] (partner dose 0.4 µM) | 93.9% | 105% | 51.4% | 144% | 97.9% | 93.5% | 126% | 91.5% | 102% | 92.2%
2 | Cn1sc(=O)n(Cc2ccccc2)c1=O + COc1ccc2c(c1)CCC1C2CCC2(C)C(NCCCCCCN3C(=O)C=CC3=O)CCC12 [U73122] (partner dose 0.4 µM) | 96.2% | 93.6% | 89.5% | 64% | 97.8% | 97.8% | 79.8% | 100% | 91.7% | 94.3%
3 | C[C@@H](N)c1ccc(C(=O)Nc2ccnc3[nH]ccc23)cc1 + Cc1ccc(NC(=O)c2cccc(N(C)C)c2)cc1NC(=O)c1ccc(O)cc1 [ZM336372] (partner dose 2 µM) | 65.6% | 94.5% | 60.9% | 58.3% | 103% | 96.9% | 97.4% | 81.6% | 86.4% | 86.2%
4 | CCCCCCCCCCCCCCCCCCOP(=O)([O-])OC1CC[N+](C)(C)CC1 [Perifosine] + O=C(Nc1ccccc1)c1cc([N+](=O)[O-])ccc1Cl [GW9662] (partner dose 2 µM) | 104% | 101% | 70.2% | 79.2% | 101% | 94.5% | 84.5% | 94.5% | 109% | 83.4%
5 | CCCCCCCCCCCCCCCCCCOP(=O)([O-])OC1CC[N+](C)(C)CC1 [Perifosine] + CO[C@@H]1[C@H](N(C)C(=O)c2ccccc2)C[C@H]2O[C@]1(C)n1c3ccccc3c3c4c(c5c6ccccc6n2c5c31)C(=O)NC4 [Midostaurin] (partner dose 0.08 µM) | 91.5% | 89.5% | 37.7% | 91% | 65% | 80.5% | 88.4% | 108% | 67.1% | 28.7%
6 | C[C@@H](N)c1ccc(C(=O)Nc2ccnc3[nH]ccc23)cc1 + O=C(CCCCCCC(=O)Nc1ccccc1)NO [vorinostat] (partner dose 0.08 µM) | 80.1% | 67.5% | 78.6% | 74.4% | 49.5% | 95.5% | 147% | 59.5% | 57.5% | 63.9%
7 | CCCCCCCCCCCCCCCCCCOP(=O)([O-])OC1CC[N+](C)(C)CC1 [Perifosine] + COc1cc2c(Oc3ccc4[nH]c(C)cc4c3F)ncnc2cc1OCCCN1CCCC1 [cediranib] (partner dose 0.4 µM) | 109% | 105% | 60.8% | 118% | 86.2% | 105% | 99.2% | 97.2% | 93.6% | 99.2%
8 | C[C@@H](N)c1ccc(C(=O)Nc2ccnc3[nH]ccc23)cc1 + NCC(=O)Nc1ccc(-n2nc(C(F)(F)F)cc2-c2ccc3c(ccc4ccccc43)c2)cc1 [OSU03012] (partner dose 1 µM) | 76.3% | 47.4% | 86.7% | 60.5% | 63.9% | 70.8% | 49.9% | 85.3% | 72.8% | 89%
9 | CCCCCCCCCCCCCCCCCCOP(=O)([O-])OC1CC[N+](C)(C)CC1 [Perifosine] + CCCCCCCCCCCC1=C(O)C(=O)C=C(O)C1=O [Embelin] (partner dose 1.2 µM) | 97.5% | 114% | 82.9% | 107% | 102% | 96.2% | 93.7% | 100% | 110% | 80.8%
10 | Cn1sc(=O)n(Cc2ccccc2)c1=O + O=C(Nc1cccc(Cl)c1)Nc1ncc(CCNc2ncnc3ccsc23)s1 [SNS314] (partner dose 0.0008 µM) | 106% | 100% | 98.3% | 101% | 88.4% | 112% | 110% | 89.8% | 97.5% | 82.5%
11 | C[C@@H](N)c1ccc(C(=O)Nc2ccnc3[nH]ccc23)cc1 + O=S(=O)(c1ccccc1)N(CC(F)(F)F)c1ccc(C(O)(C(F)(F)F)C(F)(F)F)cc1 [T0901317] (partner dose 1.4 µM) | 76.6% | 95.5% | 79.2% | 40.3% | 62.7% | 91.1% | 77.8% | 67.9% | 97% | 68.4%
12 | CCCCCCCCCCCCCCCCCCOP(=O)([O-])OC1CC[N+](C)(C)CC1 [Perifosine] + O=C(Nc1cccc(Cl)c1)Nc1ncc(CCNc2ncnc3ccsc23)s1 [SNS314] (partner dose 0.0008 µM) | 104% | 100% | 60.4% | 89.6% | 90.1% | 105% | 92.3% | 91% | 85.1% | 84.2%
13 | C[C@@H](N)c1ccc(C(=O)Nc2ccnc3[nH]ccc23)cc1 + Cc1cc([N+](=O)[O-])ccc1NS(=O)(=O)c1cc(Cl)ccc1Cl [FH535] (partner dose 1 µM) | 68.6% | 90.8% | 64.7% | 66.6% | 74% | 85.3% | 112% | 88% | 67.5% | 89.7%
